Data on 19 molecules can be found in the supplement of paper PMC10369915.

This is one part of the list. Cut-off read from the data, not from the text of the source: active = 3.2 or more and inactive = the rest. The signal is at background level for most entries.
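Note: displayed peptides selected on beads carrying the immobilized SH2 domain, with library peptides lacking any tyrosine serving as negative controls.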

The target in the first assay is SHP2 C-SH2 domain E139D. Put plainly: enrichment score (SH2-bound / input frequency) (ratio); bacterial display of known human phosphotyrosine sites (pTyr-Var adds point mutants) read by sequencing; higher = stronger binding; tyrosines were phosphorylated by kinases first. As to conditions: peptide library: pTyr-Var.
For IDDNEYAYLKA [HNF4A_Y286], the enrichment score is inactive: 0.478.

Take PLRANYLIARV [HLCS_Y635_D634N]: the enrichment score is inactive: 1.68.

Consider YNNYGYGSDGF [HNRNPH3_Y161_N163S], for which the enrichment score was inactive: 0.636.

Regarding PLRADYLIARV [HLCS_Y635], the enrichment score is inactive: 0.866.

As to LSIQCYLRALD [HMGCS2_Y262], the enrichment score is inactive: 2.75.

With AAVDTYCRHNF [HLA-DRB1_Y107_YF], the enrichment score is inactive: 1.18.

For RSSGPYGGGGQ [HNRNPA1_Y341], the enrichment score was inactive: 0.462.

Take QQPGPYDRPGA [HNRNPH2_Y210_R206Q]: the enrichment score was inactive: 0.355.

As for YCRHNYGAVES [HLA-DRB1_Y112_V114A], the enrichment score is inactive: 2.14.

DNEFAYLKAII [HNF4A_Y288_YF]: the enrichment score was inactive: 0.438.

As for LSIQCYLRASD [HMGCS2_Y262_L266S], the enrichment score was inactive: 0.927.

Take DNQFAYLKAII [HNF4A_Y288_E285Q_YF]: the enrichment score was inactive: 0.655.

As to TRRSSYEDSSL [HNF4A_Y144], the enrichment score is inactive: 0.41.

With QRPGPYDRPGA [HNRNPH2_Y210], the enrichment score was inactive: 0.72.

On to GGGGSYNVFGN [HNRNPA1_Y312_D314V], for which the enrichment score was inactive: 0.876.

On to FGSGNYNDFGN [HNRNPA2B1_Y300_YF], for which the enrichment score was inactive: 0.669.

With QKFMAYLSQGW [HLCS_Y236_G241W], the enrichment score is inactive: 1.84.

AAVDTVCRHNF [HLA-DRB1_Y107_Y107V_YF]: the enrichment score was inactive: 0.907.

Take GGFNNYGFGND [HNRNPH3_Y159_YF]: the enrichment score was inactive: 0.905.

Another assay deals with SHP2 C-SH2 domain wild-type. The assay is described as above. Conditions: peptide library: pTyr-Var.
For IDDNEYAYLKA [HNF4A_Y286], the enrichment score was inactive: 0.387.

In the case of PLRANYLIARV [HLCS_Y635_D634N], the enrichment score is inactive: 1.92.

As to YNNYGYGSDGF [HNRNPH3_Y161_N163S], the enrichment score was inactive: 0.454.

In the case of PLRADYLIARV [HLCS_Y635], the enrichment score is inactive: 0.843.

For LSIQCYLRALD [HMGCS2_Y262], the enrichment score is inactive: 2.42.

As for AAVDTYCRHNF [HLA-DRB1_Y107_YF], the enrichment score is inactive: 1.58.

As for RSSGPYGGGGQ [HNRNPA1_Y341], the enrichment score was inactive: 0.495.

Consider QQPGPYDRPGA [HNRNPH2_Y210_R206Q], for which the enrichment score is inactive: 0.431.

Take YCRHNYGAVES [HLA-DRB1_Y112_V114A]: the enrichment score is inactive: 1.93.

Take DNEFAYLKAII [HNF4A_Y288_YF]: the enrichment score is inactive: 0.579.

On to LSIQCYLRASD [HMGCS2_Y262_L266S], for which the enrichment score was inactive: 0.968.

For the molecule DNQFAYLKAII [HNF4A_Y288_E285Q_YF], the enrichment score is inactive: 0.621.

For the molecule TRRSSYEDSSL [HNF4A_Y144], the enrichment score is inactive: 0.328.

Regarding QRPGPYDRPGA [HNRNPH2_Y210], the enrichment score is inactive: 0.564.

For GGGGSYNVFGN [HNRNPA1_Y312_D314V], the enrichment score is inactive: 0.742.

FGSGNYNDFGN [HNRNPA2B1_Y300_YF]: the enrichment score was inactive: 0.901.

Take QKFMAYLSQGW [HLCS_Y236_G241W]: the enrichment score is inactive: 1.56.

As to AAVDTVCRHNF [HLA-DRB1_Y107_Y107V_YF], the enrichment score is inactive: 1.14.

Regarding GGFNNYGFGND [HNRNPH3_Y159_YF], the enrichment score is inactive: 0.621.

The target of a further assay is SHP2 N-SH2 domain L43F. The description is as above. As to conditions: peptide library: pTyr-Var.
For the molecule IDDNEYAYLKA [HNF4A_Y286], the enrichment score is inactive: 0.494.

Turning to PLRANYLIARV [HLCS_Y635_D634N], the enrichment score was inactive: 1.74.

Regarding YNNYGYGSDGF [HNRNPH3_Y161_N163S], the enrichment score is inactive: 0.541.

On to PLRADYLIARV [HLCS_Y635], for which the enrichment score was inactive: 0.846.

Turning to LSIQCYLRALD [HMGCS2_Y262], the enrichment score was inactive: 2.05.

For the molecule AAVDTYCRHNF [HLA-DRB1_Y107_YF], the enrichment score was inactive: 1.17.

As to RSSGPYGGGGQ [HNRNPA1_Y341], the enrichment score was inactive: 0.397.

With QQPGPYDRPGA [HNRNPH2_Y210_R206Q], the enrichment score is inactive: 0.394.

On to YCRHNYGAVES [HLA-DRB1_Y112_V114A], for which the enrichment score was inactive: 2.14.

Turning to DNEFAYLKAII [HNF4A_Y288_YF], the enrichment score was inactive: 0.558.

In the case of LSIQCYLRASD [HMGCS2_Y262_L266S], the enrichment score is inactive: 0.931.

Turning to DNQFAYLKAII [HNF4A_Y288_E285Q_YF], the enrichment score was inactive: 0.618.

For the molecule TRRSSYEDSSL [HNF4A_Y144], the enrichment score was inactive: 0.41.

As to QRPGPYDRPGA [HNRNPH2_Y210], the enrichment score was inactive: 0.496.

GGGGSYNVFGN [HNRNPA1_Y312_D314V]: the enrichment score was inactive: 0.601.

As for FGSGNYNDFGN [HNRNPA2B1_Y300_YF], the enrichment score was inactive: 0.63.

Turning to QKFMAYLSQGW [HLCS_Y236_G241W], the enrichment score is inactive: 1.84.

As for AAVDTVCRHNF [HLA-DRB1_Y107_Y107V_YF], the enrichment score is inactive: 1.19.

On to GGFNNYGFGND [HNRNPH3_Y159_YF], for which the enrichment score is inactive: 0.63.

The target of another assay is SHP2 N-SH2 domain T42A. Described as above. As to conditions: peptide library: pTyr-Var.
Turning to IDDNEYAYLKA [HNF4A_Y286], the enrichment score was inactive: 0.528.

As to PLRANYLIARV [HLCS_Y635_D634N], the enrichment score was inactive: 1.89.

With YNNYGYGSDGF [HNRNPH3_Y161_N163S], the enrichment score was inactive: 0.438.

For PLRADYLIARV [HLCS_Y635], the enrichment score was inactive: 1.02.

Consider LSIQCYLRALD [HMGCS2_Y262], for which the enrichment score is inactive: 1.48.

Regarding AAVDTYCRHNF [HLA-DRB1_Y107_YF], the enrichment score is inactive: 1.17.

Take RSSGPYGGGGQ [HNRNPA1_Y341]: the enrichment score is inactive: 0.429.

Consider QQPGPYDRPGA [HNRNPH2_Y210_R206Q], for which the enrichment score was inactive: 0.309.

As for YCRHNYGAVES [HLA-DRB1_Y112_V114A], the enrichment score is inactive: 1.51.

With DNEFAYLKAII [HNF4A_Y288_YF], the enrichment score is inactive: 0.462.

Turning to LSIQCYLRASD [HMGCS2_Y262_L266S], the enrichment score was inactive: 0.699.

With DNQFAYLKAII [HNF4A_Y288_E285Q_YF], the enrichment score was inactive: 0.682.

Take TRRSSYEDSSL [HNF4A_Y144]: the enrichment score was inactive: 0.364.

As for QRPGPYDRPGA [HNRNPH2_Y210], the enrichment score is inactive: 0.421.

In the case of GGGGSYNVFGN [HNRNPA1_Y312_D314V], the enrichment score was inactive: 0.66.

Regarding FGSGNYNDFGN [HNRNPA2B1_Y300_YF], the enrichment score is inactive: 0.855.

As for QKFMAYLSQGW [HLCS_Y236_G241W], the enrichment score is inactive: 1.7.

For the molecule AAVDTVCRHNF [HLA-DRB1_Y107_Y107V_YF], the enrichment score was inactive: 2.35.

GGFNNYGFGND [HNRNPH3_Y159_YF]: the enrichment score was inactive: 0.518.

For the next assay, the target named is SHP2 N-SH2 domain T52S. The assay is described as above. Conditions: peptide library: pTyr-Var.
With IDDNEYAYLKA [HNF4A_Y286], the enrichment score was inactive: 0.592.

For PLRANYLIARV [HLCS_Y635_D634N], the enrichment score was inactive: 1.76.

Consider YNNYGYGSDGF [HNRNPH3_Y161_N163S], for which the enrichment score was inactive: 0.566.

Consider PLRADYLIARV [HLCS_Y635], for which the enrichment score is inactive: 0.994.

As to LSIQCYLRALD [HMGCS2_Y262], the enrichment score is inactive: 1.39.

Take AAVDTYCRHNF [HLA-DRB1_Y107_YF]: the enrichment score is inactive: 1.13.

With RSSGPYGGGGQ [HNRNPA1_Y341], the enrichment score is inactive: 0.513.

For QQPGPYDRPGA [HNRNPH2_Y210_R206Q], the enrichment score was inactive: 0.298.

Turning to YCRHNYGAVES [HLA-DRB1_Y112_V114A], the enrichment score is inactive: 2.03.

Consider DNEFAYLKAII [HNF4A_Y288_YF], for which the enrichment score is inactive: 0.564.

Consider LSIQCYLRASD [HMGCS2_Y262_L266S], for which the enrichment score was inactive: 0.9.

In the case of DNQFAYLKAII [HNF4A_Y288_E285Q_YF], the enrichment score is inactive: 0.693.

Take TRRSSYEDSSL [HNF4A_Y144]: the enrichment score is inactive: 0.341.

On to QRPGPYDRPGA [HNRNPH2_Y210], for which the enrichment score was inactive: 0.482.

Consider GGGGSYNVFGN [HNRNPA1_Y312_D314V], for which the enrichment score was inactive: 0.65.

For FGSGNYNDFGN [HNRNPA2B1_Y300_YF], the enrichment score was inactive: 0.698.

QKFMAYLSQGW [HLCS_Y236_G241W]: the enrichment score is inactive: 1.58.

As for AAVDTVCRHNF [HLA-DRB1_Y107_Y107V_YF], the enrichment score is inactive: 1.32.

For the molecule GGFNNYGFGND [HNRNPH3_Y159_YF], the enrichment score was inactive: 0.737.

A further assay addresses SHP2 N-SH2 domain wild-type. The description is as above. Conditions: peptide library: pTyr-Var.
For IDDNEYAYLKA [HNF4A_Y286], the enrichment score was inactive: 0.536.

For the molecule PLRANYLIARV [HLCS_Y635_D634N], the enrichment score is inactive: 1.86.

Turning to YNNYGYGSDGF [HNRNPH3_Y161_N163S], the enrichment score was inactive: 0.592.

For the molecule PLRADYLIARV [HLCS_Y635], the enrichment score was inactive: 1.13.

With LSIQCYLRALD [HMGCS2_Y262], the enrichment score was inactive: 3.02.

As for AAVDTYCRHNF [HLA-DRB1_Y107_YF], the enrichment score was inactive: 1.71.

Turning to RSSGPYGGGGQ [HNRNPA1_Y341], the enrichment score is inactive: 0.513.

Consider QQPGPYDRPGA [HNRNPH2_Y210_R206Q], for which the enrichment score was inactive: 0.471.

For YCRHNYGAVES [HLA-DRB1_Y112_V114A], the enrichment score was inactive: 1.72.

With DNEFAYLKAII [HNF4A_Y288_YF], the enrichment score was inactive: 0.74.

As to LSIQCYLRASD [HMGCS2_Y262_L266S], the enrichment score was inactive: 1.18.

As for DNQFAYLKAII [HNF4A_Y288_E285Q_YF], the enrichment score was inactive: 0.708.

On to TRRSSYEDSSL [HNF4A_Y144], for which the enrichment score is inactive: 0.366.

On to QRPGPYDRPGA [HNRNPH2_Y210], for which the enrichment score is inactive: 0.562.

For GGGGSYNVFGN [HNRNPA1_Y312_D314V], the enrichment score was inactive: 0.708.

Consider FGSGNYNDFGN [HNRNPA2B1_Y300_YF], for which the enrichment score is inactive: 1.2.

With QKFMAYLSQGW [HLCS_Y236_G241W], the enrichment score is inactive: 1.64.

Take AAVDTVCRHNF [HLA-DRB1_Y107_Y107V_YF]: the enrichment score was inactive: 1.64.

GGFNNYGFGND [HNRNPH3_Y159_YF]: the enrichment score is inactive: 1.06.
